Results: patent US20060281687A1, “Cyclin groove inhibitors” (priority 2003, published 2006)
At least one compound was matched to its structure with a doubt left.

What was measured:
[1] = target: T1, CDK2/cyclin A (Homo sapiens, UniProt P20248); assay: Competitive binding assay (fluorescence polarisation, fluorescein tracer peptide); details: purified recombinant human CDK2/cyclin A; tracer fluorescein-Ahx-His-Ala-Lys-Arg-Arg-Leu-Ile-Phe-NH2; 1 h room temperature; read-out: Inhibitory activity IC50 ± SD, Competitive binding assay
Experimental: Competitive Binding Assay
This assay was performed using half-area black 96-well microtitre plates. To each well were added: 10 μL assay buffer (25 mM HEPES pH 7, 10 mM NaCl, 0.01% Nonidet P-40, 1 mM dithiothreitol), 10 μL test compound solution (in 10% aq DMSO), 10 μL CDK2/cyclin A (ca. 2 μg purified recombinant human kinase complex) in assay buffer, and 10 μL tracer peptide solution (150 nM fluorescein-Ahx-His-Ala-Lys-Arg-Arg-Leu-Ile-Phe-NH2; refer McInnes, C. et al., 2003, Curr. Med. Chem. Anti-Cancer Agents, 3, 57; Atkinson, G. E. et al., 2002, Bioorg. Med. Chem. Lett., 12, 2501) in assay buffer. After incubation with shaking for 1 h at room temperature, fluorescence polarisation at 485-520 nm was measured using a Tecan Ultra reader. Half-maximal inhibition (IC50) was calculated from dose—response curves.

[2] = target: T1, CDK2/cyclin A; assay: Functional kinase assay (phosphorylation of GST-pRb(773-928)); format: biochemical; details: recombinant human CDK2/cyclin A; GST-pRb(773-928) substrate; 100 μM ATP; 30 min at 30° C.; read-out: Inhibitory activity IC50 ± SD, Functional kinase assay
Experimental: CDK2/cyclin A kinase assays (phosphorylation of natural retinoblastoma protein (pRb)) were performed in 96-well plates using recombinant proteins. To each well were added: 10 μL assay buffer (50 mM HEPES pH 7.4, 20 mM β-glycerophosphate, 5 mM EGTA, 2 mM dithiothreitol, 1 mM NaVO3, and 20 mM MgCl2), 5 μL GST-pRb(773-928) substrate stock solution,10 μL test compound solution, 10 μL (2-5 μg protein) of purified recombinant human CDK2/cyclin A stock. The reaction was initiated by addition of 10 μL/well Mg/ATP mix (15 mM MgCl2, 100 μM ATP with 30-50 kBq per well of [γ-^32P]-ATP) and mixtures were incubated with shaking for 30 min at 30° C. Reactions were stopped on ice, followed by addition of 5 μL/well of glutathione-Sepharose 4B (Amersham Biosciences) and further incubation with shaking for 30 min at room temperature. The mixtures were then filtered on Whatman GF/C filterplates and washed 4 times with 0.2 mL/well of 50 mM HEPES containing 1 mM ATP. Plates were dried, sealed, and scintillant (Microscint 40) was added. Incorporated radioactivity was measured using a scintillation counter (TopCount, Packard Instruments, Pangbourne, Berks, UK). Half-maximal inhibition (IC50) was calculated from dose—response curves.

Row | SMILES | IC50 [1] [µM] | IC50 [2] [µM]
1 | Cc1nc(C(=O)N[C@@H](CCCCN)C(=O)N[C@H](CC(=O)N[C@@H](Cc2ccc(F)cc2)C(N)=O)CC(C)C)nn1-c1cc(Cl)cc(Cl)c1 [Compound 17] | 11.5 ± 1.31 | 13.2 ± 0.33
2 | Cc1nc(C(=O)N[C@@H](Cc2ccc(NC(=N)N)cc2)C(=O)N[C@H](CC(=O)N[C@@H](Cc2ccc(F)cc2)C(N)=O)CC(C)C)nn1-c1cc(Cl)cc(Cl)c1 [Compound 18] | 5.07 ± 0.84 | 5.3 ± 0.4
3 | Cc1nc(C(=O)N[C@@H](CCCNC(=N)N)C(=O)N[C@H](CC(=O)N[C@@H](Cc2ccc(F)cc2)C(N)=O)CC(C)C)nn1-c1cc(Cl)cc(Cl)c1 [Compound 16] | 4.98 ± 0.63 | 5.06 ± 0.81
4 | Cc1nc(C(=O)N[C@@H](CC2CCNCC2)C(=O)N[C@H](CC(=O)N[C@@H](Cc2ccc(F)cc2)C(N)=O)CC(C)C)nn1-c1cc(Cl)cc(Cl)c1 [Compound 20] | 31.54 ± 0.13 | 49.1 ± 16.5
5 | Cc1nc(C(=O)N[C@@H](CCCCN(C)C)C(=O)N[C@H](CC(=O)N[C@@H](Cc2ccc(F)cc2)C(N)=O)CC(C)C)nn1-c1cc(Cl)cc(Cl)c1 [Compound 19] | 12.4 ± 0.18 | 13.6 ± 0.63
6 | Cc1nc(C(=O)N[C@@H](Cc2c[nH]cn2)C(=O)N[C@H](CC(=O)N[C@@H](Cc2ccc(F)cc2)C(N)=O)CC(C)C)nn1-c1cc(Cl)cc(Cl)c1 [Compound 23] | 19.4 | > 22.2
7 | CC(C)C[C@@H](CC(=O)Nc1ccc(Oc2ccccc2)cc1)NC(=O)[C@H](CCCNC(=N)N)NC(=O)[C@@H](N)CCCNC(=N)N [Compound 27] | 130 ± 26.6 | 165
8 | Cc1nc(C(=O)N[C@@H](Cc2cccnc2)C(=O)N[C@H](CC(=O)N[C@@H](Cc2ccc(F)cc2)C(N)=O)CC(C)C)nn1-c1cc(Cl)cc(Cl)c1 [Compound 22] | 22.2 | > 22.2
9 | Cc1nc(C(=O)N[C@H](C(=O)N[C@H](CC(=O)N[C@@H](Cc2ccc(F)cc2)C(N)=O)CC(C)C)C2CCNCC2)nn1-c1cc(Cl)cc(Cl)c1 [Compound 21] | 22.2 ± 1.04 | 23.6 ± 1.57
